B1: LINE1-mini (parent)
chain: GGCAGAGCUCAACACAGCGUGGCAAAGUGGCUGUGGCUAGACUGCC

The source gives no read counts; variants with many changes may rest on few reads.

In this data set the parent is B1. Description: self-cleavage, relative activity (ratio to wild type); higher = more cleavage; in vitro, sequencing; the parent is a self-cleaving ribozyme.
In the case of C8A U9A C13G U32G, the self-cleavage is 0.19.
Take C8G C18A G30U: the self-cleavage is 0.08.
Then C8G G19C U28G G36A, with 0.02; and C8G A12G A16G U28G, with 0.03; and C8G A11C U20C, with 0.01.
Then C8G G17C G30A U34C C45A C46A, with 0.
As for C8G G29A G30C G36A, the self-cleavage turned out to be 0.05.
As to C8A U38C C46U, the self-cleavage came out at 0.36.
Turning to C8G G22U C23G G30A, the self-cleavage is 0.2.
The value for C8G C13U A24U A39U was 0.07; that for C8G C18U C42U was 0.03.
Then C8G A11C A14C A39U G40U, with 0.
The value for C8G C10A A26C C42G U43C was 0.06; that for C8G G27C C31A C37U was 0.02.
As for C8G A14U G29U, the self-cleavage was 0.02.
The value for C8G A25G G35C was 0.08; that for C8A U34A A39G C45G was 0.09.
For C8G G17A A39U G40A C45U, the self-cleavage stood at 0.08.
Then C8G G33A G35A G36U, with 0.2.
The value for C8G C23U A25C C31U was 0.1; that for C8G C10U U43G was 0.
Turning to C8G G17C U43G, the self-cleavage worked out at 0.11.
Then C8A U9C A12G G36U G40A, with 0.08; and C8G A11U A12C C13G G19U G22A C23G, with 0.03.
Then C8G G22U U32C G33U, with 0.11.
C8G U9A A26U C46G: the self-cleavage came to 0.16.
Consider C8G C15A G21A C23A, for which the self-cleavage turned out to be 0.19.
Then C8G G27U G35A A41C C46U, with 0.01.
The value for C8G A12C C15U was 0.03.
The value for C8G C10U A12G G30A G35U C37U A39G was 0.01; that for C8G G17U U32C was 0; that for C8G C10A G29A A41C was 0.01.
For the variant C8A U9A C31A, the self-cleavage is 0.05.
The value for C8A G40U C42A C45G was 0.28.
Then C8G G19C A24C C31U, with 0.03; and C8G A11G C23G, with 0.
The value for C8G A25U G29U was 0.13.
For C8G C10A A14G U20A, the self-cleavage came out at 0.03.
Then C8G C13A A16U U34C, with 0.07.
The value for C8G C13G A16U G27A G29U C37G was 0.06.
The value for C8G C13G G36A U43C was 0; that for C8A U20C A26C G33U G35A G40A was 0.15; that for C8G A11G C15U G22A was 0.
As for C8G G21A A26G G40U, the self-cleavage worked out at 0.17.
Then C8A U9A C23G C31G, with 0.06.
The value for C8G C10A G21U was 0.02.
The value for C8G G30A U32C was 0.04.
In the case of C8A U9A A11G G22U G29U, the self-cleavage was 0.01.
The value for C8G C18A G21U G29C was 0.03; that for C8G C18G G21A G36A A39U was 0.01; that for C8G A11C A41G was 0.02.
Then C8G A12C C15U U20C C37U C46U, with 0; and C8G A26U G40C C46A, with 0.01; and C8A U9G G33A U34G A41G C46U, with 0.02.
Then C8G G21A A25G G44U, with 0.04.
As to C8G G29U G40U, the self-cleavage was 0.05.
With C8G A14C A25C C31A, the self-cleavage came to 0.06.
On to C8G A12G A16U C37G, for which the self-cleavage worked out at 0.04.
Then C8G C13U C46A, with 0.1.
Then C8A U28A C37A, with 0.06.
Then C8G A25G G36C G40U, with 0.04; and C8G G36A C45A, with 0.13; and C8G C13A A14G C18A G30C G35U, with 0.12.
C8A U20A C31A G36U: the self-cleavage came out at 0.27.
Then C8G G17U G19U G27C C37A, with 0.01.
C8A U9C C10G C18G G19A: the self-cleavage was determined as 0.01.
The value for C8G C23G A24C was 0.05; that for C8G C18A A24G A26U G27U G33U was 0.01; that for C8G C13U G19U C37A was 0.48.
The value for C8G C10U G17A G21A A39C was 0.07.
Then C8G A12G U28A, with 0; and C8G A12C G35A C37G G40A C46U, with 0.01.
C8A U20A U28A: the self-cleavage is 0.
The value for C8A U9C A25U G30A G36A U38C was 0.06.
On to C8G G30U G36C, for which the self-cleavage was 0.06.
The value for C8G A16C G27A was 0.03.
The value for C8G A14C G17C G22U G29A G44U was 0.12.
For C8G A26U G35A C46A, the self-cleavage came out at 0.08.
Then C8G A16C U28G G36U U38C, with 0.05; and C8G A12U C18A, with 0.03.
Then C8G A16U G17A C45G, with 0.13; and C8G A14U A24U, with 0.04.
The value for C8G A12U G33U was 0.03; that for C8A U9C U20C G27U was 0.04.
As to C8G C13U A16G, the self-cleavage came to 0.07.
With C8G G22C G27U G30C G44A, the self-cleavage is 0.04.
The value for C8G G40C C42G C45U was 0.03; that for C8G G19C G44A C46U was 0.02.
The value for C8A U28C G29U was 0.25.
Turning to C8A U28G G44U, the self-cleavage was found to be 0.67.
Then C8G G22A C37U U38C A39G, with 0; and C8G C23A A24U A25U U34A, with 0.02.
Then C8A U9A G19A A25G U34A, with 0.15.
Then C8G G36U G40C, with 0.04; and C8G G19A G29C G30A, with 0.04; and C8A U20C C23A A26U G27U, with 0.05.
Consider C8G G35A G40U, for which the self-cleavage came to 0.15.
The value for C8G C10A C45A C46U was 0; that for C8G G22U C23A was 0.01.
On to C8G A12G G35U, for which the self-cleavage amounted to 0.01.
C8G G17A A26U C42U: the self-cleavage stood at 0.06.
Then C8G G22U G36A, with 0.07; and C8G C15U G40C, with 0.04; and C8G A24G G35A G36C, with 0.03.
Then C8G G22C A24C, with 0.07; and C8G A16G G29A C42U, with 0.07; and C8G U9A A12C, with 0.06.
For C8G C10A C18A, the self-cleavage is 0.05.
The value for C8A U9G G21A C45A was 0.15.
On to C8G G27U U34A, for which the self-cleavage was 0.02.
The value for C8G C10U A11C A12U A26C was 0.02; that for C8G C10U A16U was 0.05; that for C8G C15U G30A U34G G40A was 0.02.
Then C8G A24G U43C, with 0.01; and C8A U9A U43A C45A, with 0.17.
Then C8G C15A C23G A39G, with 0.01.
As for C8G C15G U34A, the self-cleavage amounted to 0.04.
As for C8G G21U G40C, the self-cleavage amounted to 0.
Then C8A U9A A11U U32C G35U C37A, with 0.02; and C8G G17U A26G G30A G40C A41U, with 0.07.
With C8G C15U A25G, the self-cleavage is 0.15.
Then C8G G19A C31U G40C, with 0.04; and C8A U32A C37A, with 0.12.
Regarding C8G G21A G33C C46A, the self-cleavage was 0.05.
The value for C8G C10A A11G C13A A24U U28G C42U G44A C46U was 0; that for C8G G29C C42A was 0.04.
C8G C10U A11U: the self-cleavage worked out at 0.01.
With C8A U9G C15A C18A, the self-cleavage is 0.05.
The value for C8G C15U G29A C46A was 0.05; that for C8G G17A G21A was 0.04; that for C8A U9G U20G was 0.02.
The value for C8G G21A C23A was 0.18; that for C8G A12C C37U was 0.01.
Then C8G A16C U28A G33U A39U, with 0; and C8G C13G A41C C42A, with 0.12.
With C8A U20A A26C U38A, the self-cleavage was 0.06.
As to C8G C10A C46G, the self-cleavage is 0.04.
The value for C8G A11G A24C was 0.03; that for C8G A14U G21A was 0.06; that for C8G G35A G44A was 0.03.
In the case of C8G G27U C37G, the self-cleavage was determined as 0.05.
The value for C8G G33C G35U was 0.03; that for C8G A16G G30A was 0.19.
Then C8G C15G U20C U28C A41C, with 0.03.
Consider C8G A12G G17A A25G A26U U28C G33U C37U, for which the self-cleavage was 0.01.
Then C8G C23G U43C, with 0.02.
As for C8G C10U A11U G29U A41G, the self-cleavage was determined as 0.04.
Then C8G G27C C31A, with 0.02; and C8G C10A C23A G40A C45G, with 0.01.
Then C8G A11C G21C G33A U34G, with 0.01; and C8G A25C A41C, with 0.1; and C8G C18U A39G C45U, with 0.01.
Then C8G G27A U34G, with 0.03.
For the variant C8A U9G A14U G29U C42A, the self-cleavage turned out to be 0.23.
The value for C8G C13G C23G was 0.01.
For C8G C10A A12G G17U U34G A41G U43G C45G, the self-cleavage is 0.01.
Then C8G G21C A24G, with 0.02.
The value for C8G A12C A14C was 0.03; that for C8G G21A G33C was 0; that for C8A U20G G29A was 0.11.
The value for C8G G22U C23A G40C was 0.06; that for C8G C10U U20G C31A was 0.02; that for C8G A24G G30C was 0.07.
As to C8A U9A C10G A14C C18G, the self-cleavage was determined as 0.01.
Regarding C8G A12C C23A U32C G36U U38C, the self-cleavage amounted to 0.
Then C8G A12G A14C C15A U38A U43A, with 0.09; and C8G A12C G22C C37A G44U C45A, with 0.01.

The record behind these values is the RNAGym collection of RNA variant scans (doi:10.7554/elife.90254).
